# According to PubChem BioAssay AID686978 (National Center for Advancing Translational Sciences (NCATS), 2013):
# About 64,000 (15%) of roughly 420,000 compounds were called active. Inconclusive results, whose numbers are uncertain, are shown with a selection of clear calls. Calls come from the whole dose curve; as a rule, active = well fitted inhibition curve with a large enough effect; inconclusive = small, poorly fitted or top-dose-only effect; inactive = flat fitted curve, though single readings scatter. No potency is given beside an inconclusive call; the fits are too rough.
# Test: qHTS for Inhibitors of human tyrosyl-DNA phosphodiesterase 1 (TDP1): qHTS in cells in absence of CPT; note: nearly all actives have a fitted effect of over 55% in size
# Conditions: DT40 Tdp1-/- hTDP1 cells, no CPT, ATP luminescence, 48 h; activity change, negative = growth inhibition: at 46.2 µM (top of the series)
# Summary of the method: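 Readout: luminescence from CellTiter-Glo after 30 min in the dark at RT. Cells: DT40 Tdp1-/- with stable hTDP1, 400/well. Exposure: compounds alone, ≥48 hr, 37 °C.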
# % is set by controls: 0 for no effect and ±100 for the full control effect; potency is the fitted concentration of half-maximal effect; tags give direction and shape of the fitted curve.
SMILES,Potency,"activity change, negative = growth inhibition"
O=C(c1ccc(N2CCCC2=O)cc1)N1CCN(c2ccccc2Cl)CC1,"inconclusive [inhibitor, single point]",
COc1ccc(NC(=O)c2ccccc2Cl)c(NC(=O)c2ccco2)c1,"inconclusive [inhibitor, single point]",
NC(=S)N=Nc1ccc(O)cc1,active: 18.4 µM,
Cc1cccc(NC(=S)NNC(=O)c2cc3c(s2)CCC(C)C3)c1C (stereo not drawn),,inactive: -2.48%
COC(=O)c1c(NC(=O)C(=O)N2CCOCC2)sc2c1CCCC2,,inactive: 3%
COc1ccc2nc(N3C(=O)/C(=C/c4ccccc4)NC3=S)sc2c1,"inconclusive [inhibitor, single point]",
CCC(Sc1nc2cc(OC)c(OC)cc2c(=O)n1CCc1ccc(OC)c(OC)c1)C(=O)NCCOC (stereo not drawn),"inconclusive [inhibitor, partial curve]",
Cc1cccc(C)c1NC(=O)C(c1ccnc2ccccc12)N1CCN(C)CC1 (stereo not drawn),active: 18.4 µM,
O=C(CSc1nncs1)Nc1cccc2ccccc12,,inactive: -5.07%
CCCN(CCC)C(=O)Cn1c(=O)n(-c2cccc(OC)c2)c(=O)c2c(C)c(C(=O)N(C)C)sc21,,inactive: -3.34%
Oc1c(Br)cc(Cl)cc1C=Nc1ccc(N2CCOCC2)cc1,"inconclusive [inhibitor, single point]",
CCC(Sc1nc2ncccc2[nH]1)C(=O)Nc1cccc(OC)c1 (stereo not drawn),"inconclusive [inhibitor, single point]",
COc1cccc(C(=O)N/N=C/c2ccc(OC3CSC3)cc2)c1,"inconclusive [inhibitor, partial curve]",
CCCc1ccc2oc(C(=O)N3CCC(C(N)=O)(N4CCCCC4)CC3)c(C)c2c1,,inactive: -12.6%
COCCCn1c(=O)c2sccc2n2c(CCCC(=O)Nc3cc(C)cc(C)c3)nnc12,"inconclusive [inhibitor, single point]",
Cc1ccc(S(=O)(=O)N2CCN(C(=O)CN3C(=O)NC4(CCCCC4)C3=O)CC2)c(C)c1,"inconclusive [inhibitor, single point]",
Cc1ccc(-c2noc(CN(C(=O)c3ccc4c(c3)OCO4)C(C)C)n2)cc1,"inconclusive [inhibitor, single point]",
O=C(Nc1cc(S(=O)(=O)N2CCCCC2)ccc1Oc1ccccc1)C1=COCCO1,"inconclusive [inhibitor, single point]",
CC(=O)COc1ccc2oc(=O)cc(-c3cc4ccccc4o3)c2c1,"inconclusive [inhibitor, single point]",
Cc1cccnc1-c1cccc2c1OC(CNC(=O)C1CCCc3c1[nH]c1ccccc31)C2 (stereo not drawn),"inconclusive [inhibitor, single point]",
CCC(=O)Nc1ccc(OC)cc1OC,"inconclusive [inhibitor, single point]",
Cc1cccc(NC(=O)Cc2ccc(Br)cc2)n1,,inactive: 1.59%
COc1ccccc1OCCCSc1nc(-c2ccc(C(C)(C)C)cc2)nc2cc(=O)[nH]n12,"inconclusive [inhibitor, single point]",
O=C(NCCc1ccco1)C(=O)NCC1CCCN1S(=O)(=O)c1ccccc1 (stereo not drawn),active: 4.11 µM,

SMILES,Potency,"activity change, negative = growth inhibition"
Cc1cccc(-c2nnc(-c3ccc4ccccc4c3)o2)c1,"inconclusive [inhibitor, single point]",
O=C(O)CCC(=O)OCC1CCCO1 (stereo not drawn),,inactive: -1.23%
Cc1ccc(NC(=O)C(Cc2ccccc2)n2cccc2)cc1 (stereo not drawn),active: 23.1 µM,
CC1(C(=O)NS(=O)(=O)c2cccc(F)c2)CCN1C(=O)CC1CCCCC1 (stereo not drawn),,inactive: -12%
CCC(=O)c1ccc(O)c(CC=C(C)C)c1,"inconclusive [inhibitor, partial curve, poor fit]",
COc1ccc(CNC(=O)C2CCN(S(=O)(=O)c3ccc4c(c3)CC(C)N4C(C)=O)CC2)cc1 (stereo not drawn),,inactive: -23.4%
CCOc1cc2c(cc1OCC)C(c1ccc(OC)cc1)N(c1ccccc1)C(=O)C2 (stereo not drawn),,inactive: 8.59%
Cc1ccc(C)c(S(=O)(=O)c2cn(C)c3cc(N4CCCCC4C)c(F)cc3c2=O)c1 (stereo not drawn),active: 20.6 µM,
c1ccc(-c2nc(C3CCCCC3)c3ccccc3n2)cc1,,inactive: -16%
COc1ccc(C=NNC(=O)NN=Cc2ccc(OC)c(OC)c2)cc1OC,active: 20.6 µM,
CN1CCc2c(sc3c2C(=O)NC(c2ccc(OC(=O)c4ccccc4)cc2)N3)C1 (stereo not drawn),"inconclusive [inhibitor, single point]",
COc1ccc2[nH]c(=O)c(CN(Cc3cccs3)S(=O)(=O)c3c(C)ccc4nsnc34)cc2c1,active: 18.4 µM,
CN1CCN(S(=O)(=O)c2ccc(N(C)Cc3c(F)cccc3Cl)nc2)CC1,"inconclusive [inhibitor, single point]",
CCOC(=O)c1cc(-c2c(Cl)cccc2Cl)no1,,inactive: -25.8%
COCCOC(=O)c1c(NC(=O)CSc2cccc[n+]2[O-])sc(C(N)=O)c1C,"inconclusive [inhibitor, single point]",
CC(C)(Oc1ccc(CCNC(=O)c2ccc(Cl)cc2)cc1)C(=O)O,inactive,
CCN1CCN(c2ncc(C(=O)Nc3ccccc3C(=O)OC)c3ccccc23)CC1,active: 16.4 µM,
Cc1cc(NCc2ccccn2)n2ncc(-c3ccccc3)c2n1,active: 0.146 µM,
COc1ccc(CNC(=O)Cn2ncc3c4ccccc4n(Cc4cccc(Cl)c4)c3c2=O)cc1,"inconclusive [inhibitor, partial curve]",
NS(=O)(=O)c1ccc(NC(=O)CN2CCCN(S(=O)(=O)c3ccc(F)cc3)CC2)cc1,,inactive: -28.1%
Cn1c(=O)c2c(nc(Br)n2CC(=O)C23CC4CC(CC(C4)C2)C3)n(C)c1=O,active: 18.4 µM,
CCOC(=O)c1sc(NC(=S)NC(=O)C23CC4CC(CC(C4)C2)C3)cc1C,"inconclusive [inhibitor, single point]",
CCOC(=O)CN(C(=O)CNC(=O)c1cccs1)C(C(=O)NC1CCCC1)c1ccncc1 (stereo not drawn),,inactive: 21.5%
COc1ccc(-c2cnc(NCc3cc4c(cc3[N+](=O)[O-])OCO4)n2C)cc1,active: 13 µM,
